Experimental data as given in PubChem BioAssay AID493208 (National Center for Advancing Translational Sciences (NCATS), 2011).
Hit rate of the full screen: of about 44,000 compounds, about 340 (0.77%) were called active. About 5% were inconclusive and are not listed. Calls follow the shape of the dose curve; as a rule, active = well fitted inhibition curve with a large enough effect; inconclusive = small, poorly fitted or top-dose-only effect; inactive = flat fitted curve, though single readings scatter. This is one part of the list.

Assay: Acumen qHTS Assay for Inhibitors of the mTORC1 Signaling Pathway in MEF (Tsc2-/-, p53-/-) Cells: Sytravon;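 also: plate controls were DMSO for no effect and rapamycin for full effect; nearly all actives have a fitted effect of over 50% in size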
Conditions: phospho-rpS6 immunofluorescence/PI, 24 h; series mostly up to 38.3 µM; activity change, negative = inhibition: at the top concentration
How it was run: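 Plate MEFs (Tsc2-/-, p53-/-, empty vector) in DMEM/10% FBS; after 24 h add compound, incubate 24 h at 37 degree Celsius; fix in PFA/TX-100, block, stain phospho-rpS6 and 10 uM PI; scan at 488 nm; report % positive cells.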

Activity change, negative = inhibition, inactive:
COc1ccc(N2CCN(C(=O)C(C)n3c(=O)cc(C(F)(F)F)c4c(C)nn(C)c43)CC2)cc1 (stereo not given) 0.179%, Cc1ccc(NC(=O)C2CCCN2S(=O)(=O)c2ccc3c(c2)C(C)(C)C(=O)N3C)cc1 (stereo not given) 1.52%, CCOc1ccc(NC(=O)c2cc(C)nc3c2c(C)nn3-c2cccc(F)c2)cc1 6.56%, Cn1cnc(S(=O)(=O)N2CCCC(C(=O)NCc3ccccc3)C2)c1 (stereo not given) 0%, Cc1cccc(N2CCN(C(=O)Cn3ncc4c([nH]c5ccccc54)c3=O)CC2C)c1 (stereo not given) 3.32%, COc1ccc(-c2cc(C)no2)cc1S(=O)(=O)NC1CCC(C)CC1 (stereo not given) 0%, CC1(C(=O)NC2CCCCC2)Cc2ccccc2C(=O)N1Cc1ccc(F)cc1 (stereo not given) -1.34%, Cc1ccc(S(=O)(=O)c2nc(-c3ccco3)oc2SCc2ccc(F)cc2)cc1 -20.3%, O=C(CSc1nc2ccccc2nc1Cc1ccccc1)Nc1ccccc1C(F)(F)F 4.97%, COc1ccc(S(=O)(=O)NCCc2sc3nc(-c4ccc(C)cc4)nn3c2C)cc1F -21.8%, CCOc1ccc(-n2ccnc2SCC(=O)Nc2ccc3c(c2)OCO3)cc1 -7.53%, CCOc1ccc(CNC(=O)c2cnc3sc(N(CC)CC)nn3c2=O)cc1 -13.6%, COc1cccc(NC(=O)c2c(N3CCCC3=O)c3cc(C)ccc3n2C)c1 0%, O=C(Nc1ccc(C(=O)OCc2cc(=O)n3nc(C4CC4)sc3n2)cc1)c1cccc(Cl)c1 0.29%, CCOc1ccc(CCNC(=O)c2cccc(-n3c(C)nc4cccnc43)c2C)cc1 1.05%, CCOC(=O)CCCN1C(=O)CCn2nc(-c3cn(C)c4ccccc34)cc21 -5.31%, CCCCN(Cc1ccccc1)S(=O)(=O)c1cc(Br)cc2c1N(C(C)=O)CC2 -14.4%, COc1ccc(C(=O)Nc2c(C(=O)c3ccc(F)cc3)oc3ccccc23)cc1 0.579%, CCc1cccc(C)c1NC(=O)C1CCN(S(=O)(=O)c2cccc3nonc23)CC1 -4.52%, O=C1CC(c2ccc(Cl)cc2)c2cc3c(cc2N1)OCCO3 (stereo not given) -2.67%, COc1ccc(-c2nc3c(c(SCC(=O)Nc4ccccc4OC)n2)Cc2cccc(C)c2O3)cc1 -20.6%, CCCCCn1c(=O)[nH]c2cc(C(=O)N3CCN(c4cccc(OC)c4)CC3)ccc2c1=O -35.1%, CCCSc1ncc(Cl)c(C(=O)Nc2scc(-c3ccc(C)cc3)c2C(=O)OCC)n1 -4.97%, CCOc1ccc(CNC(=O)c2cccn2-c2nnc(N3CCCCC3)s2)cc1OC 0%, CCOCCCNC(=O)c1cc(=O)[nH]c2ccc(S(=O)(=O)N3CCCC3)cc12 1.74%, CCCCC(=O)Nc1c(C(=O)N2CCN(c3ccccc3)CC2)oc2ccccc12 1.58%, CCC(C)NC(=O)Cc1ccc(NC(=O)N2CCCCc3ccccc32)cc1 (stereo not given) 10.4%, CC(C)Oc1ccc(CNC(=O)C2CCCCN2S(=O)(=O)c2ccc(F)cc2)cc1 (stereo not given) -7.77%, Cc1cc(C)cc(OCc2cc(=O)n3c4c(sc3n2)CCCC4)c1 0.353%, Cc1ccc(-n2c(=O)c3oc4ccccc4c3n(CC(=O)Nc3ccc(F)c(Cl)c3)c2=O)cc1C 1.07%, N#Cc1ccccc1NC(=O)C(=O)NCC(c1ccc2c(c1)OCO2)N1CCOCC1 (stereo not given) -2.36%, O=C(CS(=O)(=O)c1cccc2nsnc12)Nc1ccc(F)cc1F 5.68%, CC(C)CCNC(=O)c1c2c(nc3ccccc13)C(=O)N(C1CCCCC1)C2 1.15%, CCCCN(C)C(=O)c1ccc2c(c1)N(Cc1ccc(F)cc1)C(=O)c1ccccc1S2(=O)=O -0.81%, O=C(Nc1ccccc1F)C1CCN(S(=O)(=O)c2ccc3c(c2)CCCN3C(=O)C2CCC2)CC1 1.07%, Cc1ccc(-c2nc(CS(=O)CC(=O)N3CCN(c4ccc(F)cc4)CC3)c(C)o2)cc1 (stereo not given) 0.974%, O=c1c2sc3ccccc3c2n(Cc2cccc(F)c2)c(=O)n1Cc1ccccc1 2.26%, CCOC(=O)Cn1c(=O)n(CC2CCCO2)c2nc(-c3ccccc3OC)nc(C(N)=O)c21 (stereo not given) 0.154%, O=C(NC1CC(=O)N(c2ccc(F)cc2)C1)c1ccc(S(=O)(=O)N2CCCCC2)cc1 (stereo not given) 0.423%, Cc1ccc2c(c1Br)C(O)(CC(=O)c1ccc(F)cc1)C(=O)N2 (stereo not given) 2.72%, O=C(NCc1cccs1)c1ccc2c(=O)n3nc(Nc4ccccc4)sc3nc2c1 -6.15%, Cc1cccc2sc(N(Cc3cccnc3)C(=O)CCc3ccccc3)nc12 -32.3%, Cc1c(Cl)cccc1NC(=O)CC1Oc2ccccc2NC1=O (stereo not given) -1.06%, CCOc1ccccc1C(=O)N(Cc1ccco1)Cc1ccco1 1.39%, COc1ccccc1CNC(=O)C1CCCN(S(=O)(=O)c2ccc3c(c2)oc(=O)n3C)C1 (stereo not given) -1.99%, O=C(c1ccc2c(c1)N(Cc1ccccc1F)C(=O)c1ccccc1S2(=O)=O)N1CCC(Cc2ccccc2)CC1 -6.43%, COc1ccc(-c2cc(C(=O)Nc3c(C(=O)c4ccc(C)cc4)oc4ccccc34)no2)cc1 -0.335%, O=C(Cn1c(=O)n(Cc2nc(-c3ccccc3)no2)c(=O)c2ccccc21)Nc1cccc(C(F)(F)F)c1 -0.901%, Cn1cc(-c2cc3n(n2)CCC(=O)N3CCCC(=O)NCc2ccc(Cl)cc2)c2ccccc21 -4.71%, O=C(CCCn1c(=O)c2cccn2c2ccccc21)Nc1cc(C(F)(F)F)ccc1Cl 1.83%, CCC(CC)C(=O)OCc1cc(=O)n2nc(C3CC3)sc2n1 -10%, CC1=C(c2ccc(Cl)cc2)S(=O)(=O)NC1=NCCCN1CCN(c2cc(C)ccc2C)CC1 -1.06%, CC1C(=O)Nc2ccc(S(=O)(=O)N3CCCCC3)cc2NC1=O (stereo not given) -13.5%, CCOC(=O)c1cc(-c2ccc(OC)cc2)n(CCC(=O)Nc2ccccc2OC)c1C 5.37%, O=C(CSc1nccn1Cc1ccccc1)NCc1ccco1 -0.224%, COc1ccc(Cn2c(CCC(=O)Nc3cc(OC)c(OC)c(OC)c3)nc3cccnc32)cc1 -1.81%, CCOc1ccc(NCc2cccn2-c2nnc(N3CCC(C(=O)NCC(C)c4ccccc4)CC3)s2)cc1 (stereo not given) -1.81%, CCOc1ccccc1NC(=O)CN1C(=O)COc2ccc(S(=O)(=O)N3CCOCC3)cc21 1.47%, CCN(c1ccccc1)S(=O)(=O)c1ccc(NC(=O)c2nc(SC)ncc2Cl)cc1 -2.82%, CCN(CC)c1ccc(NC(=O)C2CCN(c3nnc(-n4cccc4)s3)CC2)c(C)c1 -15.5%, Cc1cc(C)n(C(C)CC(=O)Nc2cccc(C(F)(F)F)c2)n1 (stereo not given) -14.3%, O=C(Nc1cc(-c2nc3ccccc3o2)ccc1Cl)c1sc2c([N+](=O)[O-])cccc2c1Cl -4.66%, CC(C)(C)OC(=O)N1CCC(c2c(C(=O)NCc3cccc(Cl)c3)cnn2-c2ccc(F)cc2)CC1 -11.8%, CCOc1ccc(CN2CCc3nc(N4CCN(c5ccccc5OC)CC4)ncc3C2)cc1OC -0.004%, CCc1ccccc1NC(=O)CSc1nc(-c2cccc(Cl)c2)nc2c1Cc1c(CO)cnc(C)c1O2 -0.69%, COc1cc(/C=C(\C#N)C(=O)NCC2CCCO2)ccc1O (stereo not given) 0.648%, COc1ccc(-n2c(-c3ccc(C)cc3)cc3c2CC(C)(C)CC3=O)cc1Cl -1.5%, Cc1ccccc1C(=O)Nc1nnc(S(=O)(=O)N(C)Cc2ccccc2)s1 -2.37%, O=C(NCCCN1CCCCC1)c1sc2ncccc2c1-n1cccc1 -4.87%, CC1CCN(C(=O)Cn2c(=O)n(CC3CCC(C(=O)NC(C)C)CC3)c(=O)c3sccc32)CC1 (stereo not given) 5.04%, CCOC(=O)c1ccc(NC(=O)CC2C(=O)N(c3ccc(F)cc3)C(=O)N2Cc2cccnc2)cc1 (stereo not given) 0.369%, COc1ccc(-c2nc(SCC(=O)NC3CCCC3)c(-c3ccc(F)cc3)[nH]2)cc1 -2.3%, CC(C)c1ccc(Cn2c(COc3ccccc3)nc3ccccc32)cc1 1.89%, CCn1nc(C)c2c(-c3ccccc3)cc(=O)n(C(C)C(=O)NCCC(C)C)c21 (stereo not given) 1.95%, CC(=O)Nc1ccc(NC(=O)CCc2nc3cccnc3n2Cc2cccs2)cc1 0.0134%, Cc1ccc(NC(=O)Cn2nc(C(=O)Nc3ccc(C)cc3)ccc2=O)cc1 -5.59%, CC1CCN(Cc2c(O)ccc3c(=O)c(Oc4ccccc4Cl)c(C(F)(F)F)oc23)CC1 0.498%, COc1ccc(CNS(=O)(=O)c2ccc(N3CCCCS3(=O)=O)cc2)cc1 0.278%, CCc1ccc(OC(C)C(=O)N2CCC(c3nc4ccccc4o3)CC2)cc1 (stereo not given) -6.43%, Cc1ccc(C(=O)Nc2ccc3c(c2)n(C)c(=O)c(=O)n3C)cc1 -25.4%, O=C(COc1ccccc1F)Nc1ccc2nc(SCCOc3ccccc3)sc2c1 -1.49%, Cc1ccc(NC(=O)Cn2c(=O)n(Cc3nc(-c4ccccc4)no3)c(=O)c3cc4c(cc32)OCO4)cc1F 0.0504%, COc1ccc(NC(=O)CC2C(=O)N(c3cccc(OC)c3)C(=O)N2CCc2cccs2)cc1 (stereo not given) 1.94%, CCCCN(CC)CCCNC(=O)CS(=O)(=O)Cc1nc(-c2ccc(C)cc2)oc1C -11.6%, CCOc1ccc(CCNC(=O)C2CCN(C(=O)N3CC(CC)Oc4ccccc43)CC2)cc1 (stereo not given) -1.9%, CCCOc1ccc(C(=O)Nc2ccc3oc(-c4ccncc4)nc3c2)cc1 4.61%, O=C(Nc1nnc(N2CCCCCC2)s1)Nc1cc(F)ccc1F -9.24%, CCOCCCN(Cc1ccco1)S(=O)(=O)c1cc2c(cc1Cl)NC(=O)CO2 -11.3%, Cc1c2cnn(CC(=O)NCc3ccc(F)cc3)c(=O)c2c(C)n1Cc1cccc(Cl)c1 -10.1%, O=C(NCc1ccc(Cl)cc1)c1cnc2sc(N3CCOCC3)nn2c1=O -3.42%, Cc1ccccc1-c1noc(-c2ccc(N3CCCCC3)c([N+](=O)[O-])c2)n1 2.81%, COc1ccc(NC(c2nnc(-c3ccccc3)o2)c2ccccc2F)cc1Cl (stereo not given) -0.167%, COc1cc(NC(=O)CSc2nnc(C)n3c2cc2oc(C)cc23)cc(OC)c1 -8.61%, Cn1nnc2c(N3CCN(c4cccc(Cl)c4)CC3)ncnc21 1.38%, COCCN(Cc1cccs1)S(=O)(=O)c1cc(-c2cc(C)no2)ccc1C -3.01%
